Reference: PubChem BioAssay AID488969 (Vanderbilt High Throughput Screening Facility, 2010)
Over roughly 110,000 compounds, “z-score” has its median near -0.1; the highest 2% begin near 2. The list shows a part of the results.

biological target: Metabotropic glutamate receptor 8 (Rattus norvegicus) (UniProt P70579); assay: mGluR8 Gi/Go-coupled signaling modulation – cell-based, rat, thallium flux, HTS, primary screen (AID 488969); details: HEK293 rat mGluR8, GIRK (G protein-gated inwardly rectifying potassium channel) thallium flux, FluoZin2; at 10 µM; stronger effect = higher value; submaximal glutamate (EC20) added with thallium
Chain of UniProt P70579 (P70579 whole entry, looked up): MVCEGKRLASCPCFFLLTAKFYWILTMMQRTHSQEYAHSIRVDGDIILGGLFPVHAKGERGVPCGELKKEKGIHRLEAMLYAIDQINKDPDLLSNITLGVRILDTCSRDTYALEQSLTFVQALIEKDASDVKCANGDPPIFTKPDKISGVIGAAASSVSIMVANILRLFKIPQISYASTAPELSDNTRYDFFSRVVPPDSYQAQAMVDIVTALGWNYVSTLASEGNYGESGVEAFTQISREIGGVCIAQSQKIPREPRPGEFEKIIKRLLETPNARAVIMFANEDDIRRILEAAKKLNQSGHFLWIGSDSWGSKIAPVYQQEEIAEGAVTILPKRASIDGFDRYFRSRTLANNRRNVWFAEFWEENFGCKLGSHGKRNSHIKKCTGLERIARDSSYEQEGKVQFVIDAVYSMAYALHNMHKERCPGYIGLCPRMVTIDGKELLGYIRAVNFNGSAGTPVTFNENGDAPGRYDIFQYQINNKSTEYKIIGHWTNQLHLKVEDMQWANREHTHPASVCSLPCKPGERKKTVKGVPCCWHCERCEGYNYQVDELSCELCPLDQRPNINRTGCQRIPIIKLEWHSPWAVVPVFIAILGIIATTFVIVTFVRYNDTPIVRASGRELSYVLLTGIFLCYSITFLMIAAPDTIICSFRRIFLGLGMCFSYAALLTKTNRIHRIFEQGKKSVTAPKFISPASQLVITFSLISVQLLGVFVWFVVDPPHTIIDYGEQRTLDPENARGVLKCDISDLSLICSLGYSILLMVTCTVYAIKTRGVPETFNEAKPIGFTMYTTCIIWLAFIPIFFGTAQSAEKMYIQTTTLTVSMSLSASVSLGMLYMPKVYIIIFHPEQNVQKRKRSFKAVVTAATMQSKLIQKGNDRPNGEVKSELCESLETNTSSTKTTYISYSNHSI

Row | Compound | z-score
1 | Cc1cccc(N2CCN(C(=O)C3CCN(S(=O)(=O)c4cccnc4)CC3)CC2)c1C | -0.429
2 | Cc1cc(-c2c(C)[nH]n(-c3ccc(Cl)cc3)c2=O)n(-c2ccc(Cl)cc2)n1 | -0.308
3 | O=C1c2ccccc2C(=O)N1c1cccc(-c2nc3ccccc3o2)c1 | 1.29
4 | Cn1c(SCC(=O)c2c(N)n(C)c(=O)n(C)c2=O)nnc1-c1ccccc1 | -0.21
5 | COc1cc(-c2noc(CCCC(=O)NCc3ccco3)n2)cc(OC)c1OC | -0.483
6 | CCOc1ccc(C2NC(=O)c3ccccc3O2)cc1 (stereo not given) | -0.311
7 | CC(=O)NNC(=S)Nc1cc(S(=O)(=O)N(C)C)ccc1C | -0.102
8 | CCc1ccc(N2C(=O)c3cc(N4CCOCC4)c([N+](=O)[O-])cc3C2=O)cc1 | 0.302
9 | Cc1ccccc1-c1cc(C(=O)Nc2sc(C(=O)OC(C)C)c(C)c2C#N)c2ccccc2n1 | -0.876
10 | S=c1sc2c(N3CCN(Cc4ccccc4)CC3)ncnc2n1-c1ccccc1 | 0.467
11 | O=C(Cn1nnc(-c2ccccc2)n1)OC1CCOC1=O (stereo not given) | -0.898
12 | O=C(/C=C/c1ccccc1)Nn1cnc2ccccc2c1=O | 0.498
13 | COc1ccccc1-n1cnc2cc(NC(=O)c3ccco3)ccc21 | -0.134
14 | O=C(NC1CCCC1)C(c1ccc(F)cc1)N(Cc1ccc(F)cc1)C(=O)c1ccn[nH]1 (stereo not given) | -0.494
15 | CCOC(=O)/C=C1\SCC(=O)N1CC(=O)NC(C)C | 0.775
16 | O=C(CN1C(=O)NC2(CCc3ccccc3C2)C1=O)Nc1ccc(F)cc1 (stereo not given) | -0.146
17 | CCOCCCN1C(=O)C(O)=C(C(C)=O)C1c1cccs1 (stereo not given) | -0.0902
18 | COCCCNc1ncnc2nc[nH]c12 | -0.223
19 | Cc1cc(C)c(S(=O)(=O)N(CC(=O)NCc2cccnc2)C2CCCCC2)c(C)c1 | 0.497
20 | CN1C(=O)c2ccccc2C(C(=O)NCCCN2CCCC2=O)C1c1c[nH]c2ccccc12 (stereo not given) | -0.179
21 | CCC1CSC(Nc2ccc(C(=O)/C=C/c3cccc(C)c3)cc2)=N1 (stereo not given) | -0.0711
22 | CCc1nc2cc([N+](=O)[O-])c([N+](=O)[O-])cc2[nH]1 | -0.0776
23 | COCCCNC(CC(=O)Nc1ccccc1C(=O)OC)C(=O)O (stereo not given) | 0.0449
24 | Cc1cc(C)n2nc(SCc3cc(=O)n4ccccc4n3)nc2n1 | -0.0377
25 | COCCCNC(=S)N(Cc1ccccc1)Cc1ccccc1 | 0.454
26 | Cc1ccc(C2c3c(-c4ccccc4O)n[nH]c3C(=O)N2Cc2ccncc2)cc1 (stereo not given) | 0.0879
27 | O=C(CCl)Nc1ccc(N=Nc2ccccc2)cc1 | -0.201
28 | COC(=O)c1ccc(CNCC(=O)Nc2ccc(C(=O)OC)cc2)cc1 | -0.0376
29 | Cc1oc(-c2ccccc2Cl)nc1CSCC(=O)O | -1.11
30 | COc1ccc(/C=N\NC(=O)/C(=C\Nc2nccc(C)n2)NC(=O)c2ccccc2)cc1 | -0.263
